These results are taken from ChEMBL document CHEMBL1201862, “PubChem BioAssay data set” (2004).

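Exposure lasted 48 hours, with cells grown in 96-well plates and compounds tested at five concentrations. Abbreviation: GI50, concentration required for 50% inhibition of growth.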 Activity calls are given as the source filed them. No stated cut-off is given here; in the data, active = GI50 up to about 1.1 µM and inactive = higher. Bounds are passed on as bounds.

The assay has as its system NCI-H322M. Briefly: DTP human tumour cell line panel, 48 h.
A word on the GI50: it is the concentration at which growth is held to half of that of the control. Turning to `O=C(CC1(O)C(=O)Nc2ccccc21)c1ccccc1O` (centres undefined), the GI50 was inactive: > 100 µM.
Then `CN(Cc1cccc2ccccc12)Cc1cccc2ccccc12`, with inactive: > 100 µM; and `COc1ccc(-c2nc3c(C(=O)NCCN(C)C)cccc3c3ccccc23)cc1`, with inactive: 8.89 µM; and `C[N+](C)=c1nc(N2CCOCC2)ss1`, with inactive: > 100 µM.
Then `COC1=CC(=O)OC(/C=C(C)/C=C/C2=C(C)CCCC2(C)C)C1` (centres undefined), with inactive: > 100 µM; and `COC(=O)c1sc(=S)sc1SCc1cccc(CSc2sc(=S)sc2C(=O)OC)c1`, with inactive: > 100 µM; and `CC1OC(OC2C(O)COC(OC3C(C)OC(OC4C(OC(=O)[C@]56CCC(C)(C)C[C@@H]5C5=CCC7[C@@]8(C)C[C@H](O)[C@H](OC9OC(CO)C(O)C(O)C9O)[C@@](C)(CO)[C@@H]8CC[C@@]7(C)[C@]5(C)CC6)OCC(O)C4O)C(O)C3OC3OCC(O)(CO)C3O)C2O)C(O)C(O)C1O` (some centres undefined), with inactive: 6.24 µM.
Consider `Nc1nc(=O)[nH]c2c1cnn2C1CCCCO1` (centres undefined), for which the GI50 is inactive: > 100 µM.
Then `COC(=O)C1=C(C(=O)OC)SC2(S1)C1=C(CCCC1)SC(C(=O)OC)=C2C(=O)OC`, with inactive: 3.56 µM.
With `OCC1OC(OCC(O)C(O)C(O)C(/C=N/Nc2ccccc2)=N/Nc2ccccc2)C(O)C(O)C1O` (centres undefined), the GI50 is inactive: 21.8 µM.
Then `COc1ccc(OC)c(C23CCCC(C2)N(C)CC3)c1` (centres undefined), with inactive: 46.8 µM; and `Clc1ccc2c(Cl)nc(-c3ccccc3)nc2c1`, with inactive: 39.5 µM; and `O=[N+]([O-])c1cccc2nc3ccccc3c(NCCc3cccc[n+]3[O-])c12`, with active: < 0.0448 µM.
For `O=C(CC1C=CCS1(=O)=O)NCc1ccccc1` (centres undefined), the GI50 is inactive: > 100 µM.
In the case of `O=[N+]([O-])c1ccc(C2SCc3nc4ccccc4n32)cc1` (centres undefined), the GI50 was inactive: > 100 µM.
Take `CN1C(=O)C(CC=O)(C(C)(C)C)c2ccccc21` (centres undefined): the GI50 was inactive: > 100 µM.
Then `Cc1nc(SCC(N)=O)c2sc(=S)n(-c3ccccc3)c2n1`, with inactive: > 10 µM.
With `NC(CSCc1ccccc1)C(=O)O` (centres undefined), the GI50 is inactive: > 100 µM.
Turning to `CCC(=O)N/S(=N/S(=O)(=O)c1ccccc1)C(Cl)(Cl)Cl` (centres undefined), the GI50 was inactive: > 100 µM.
Then `CCOC(=O)CNC(=O)c1nc[nH]c1/N=N/N(C)C`, with inactive: > 100 µM; and `COc1ccc(CCn2cnc3ccccc32)cc1`, with inactive: > 100 µM; and `CC1(Br)S(=O)(=O)OCCOS1(=O)=O`, with inactive: > 100 µM.
Consider `CNC(=O)CCCNC(=O)CCCC(=O)N(C)C`, for which the GI50 is inactive: > 100 µM.
Turning to `CCOP(=O)(OCC)C(c1ccc(F)cc1)N(C(=O)NC(F)(F)F)c1ccc(F)cc1` (centres undefined), the GI50 was inactive: > 100 µM.
Then `Cc1cc(Cl)ccc1NC(=O)C(=O)Cc1nc2ccccc2o1`, with inactive: > 100 µM.
Then `O=C1C2C3SC(c4cc5ccccc5cc43)C2C(=O)N1c1ccccc1` (centres undefined), with inactive: > 100 µM; and `CCOP(=O)(OCC)C(Nc1ccc(C(=O)O)cc1)c1ccc(C(Nc2ccc(C(=O)O)cc2)P(=O)(OCC)OCC)cc1` (centres undefined), with inactive: > 100 µM.
For the compound `NC(=O)c1cc2ccc(O)cc2o/c1=N/c1ccccc1`, the GI50 is inactive: 25.6 µM.
Then `C[N+](C)(C)C.FC(F)(F)C1(C(F)(F)F)O[SiH-]2(OC(C(F)(F)F)(C(F)(F)F)c3ccccc32)c2ccccc21`, with inactive: 13.3 µM.
Then `O=C(Nc1ccc(Sc2ccc(/N=N/c3c(O)c(S(=O)(=O)O)cc4cc(S(=O)(=O)O)ccc34)cc2)cc1)c1ccc(/N=N/c2c(O)c(S(=O)(=O)O)cc3cc(S(=O)(=O)O)ccc23)cc1`, with inactive: 32.3 µM.
Then `O=C1c2c(F)c(F)c(F)c(F)c2SC2=NCCN12`, with inactive: 16.9 µM; and `COc1cccc2c1CCc1cc3c(N)nc(N)nc3nc1-2`, with inactive: 4.13 µM.
On to `O=[N+]([O-])c1cc(Cl)c(Cl)cc1[N+](=O)[O-]`, for which the GI50 is inactive: 15.6 µM.
Regarding `COC1(OC)CC(CO)(CNc2nc(N)nc(Cl)c2C=O)C1`, the GI50 is inactive: 34.7 µM.
Then `N#Cc1c(-c2ccc([N+](=O)[O-])cc2)c(C#N)c(=O)n(NS(=O)(=O)c2ccccc2)c1O`, with inactive: > 100 µM; and `O=C1C[C@H](c2ccccc2)C2(C(=O)c3ccccc3C2=O)[C@@H](c2ccccc2)C1`, with inactive: 66.1 µM; and `Cc1cnc(Cl)nc1C(C#N)c1nc2ccccc2s1` (centres undefined), with inactive: 26.9 µM.
Regarding `O=C1NC(=O)C(CC(C(=O)C(=O)Nc2ccccc2Cl)C(=O)c2ccc3ccccc3c2)C(=O)N1` (centres undefined), the GI50 was inactive: > 100 µM.
For the compound `Clc1ccc(C2ON=C(c3ccccc3)N2C23CC4CC(CC(C4)C2)C3)c(Cl)c1` (centres undefined), the GI50 is inactive: > 10 µM.
For `O=C(/C=C(\O)C(=O)O)/C=C(\O)c1ccccc1Cl`, the GI50 was inactive: > 100 µM.
For the compound `COc1ccc(/N=N/c2c(-c3ccccc3)nn(C(=O)CC(=O)Nc3ccc(OC)cc3)c2-c2ccccc2)cc1`, the GI50 was inactive: > 100 µM.
For `CC1(C)Oc2ccc3c(=O)cc(-c4ccc(F)cc4)oc3c2C1C(=O)O` (centres undefined), the GI50 is inactive: > 100 µM.
For `CC(C)(C)C(=O)CC1=Nc2ccccc2SC1(O)CC(=O)C(C)(C)C` (centres undefined), the GI50 was inactive: 29.9 µM.
Then `COc1ccc2cc(C(=O)O)ccc2c1OC`, with inactive: > 100 µM.
Turning to `COC(=O)c1cc(C)n(CN(Cc2ccccc2)Cn2nc(C(=O)OC)cc2C)n1`, the GI50 was inactive: > 100 µM.
Then `CCOC(=O)c1sc2nc(SC)nc3c2c1NCN3c1ccc2c(c1)OCO2`, with inactive: 40.1 µM; and `COc1ccc2c(=O)c3ccoc3[nH]c2c1`, with inactive: > 100 µM; and `COC(=O)C1C(O)CCC2CN3CCc4c([nH]c5cccc(OC)c45)C3CC21` (centres undefined), with inactive: > 100 µM.
With `Nc1ccc(S(=O)(=O)C23CC4CC(CC(C4)C2)C3)cc1`, the GI50 was inactive: > 100 µM.
`CO/C=C(/C(=O)OC)c1ccccc1Oc1c(F)c(F)c(F)c(F)c1F`: the GI50 is inactive: 31.3 µM.
Then `OC(NN=C1CCCC1)(C(F)(F)Cl)C(F)(F)Cl`, with inactive: > 10 µM.
Then `O=C(N/N=C/C=C/c1ccccc1)[C@H](O)[C@@H](O)C(=O)N/N=C/C=C/c1ccccc1`, with inactive: > 100 µM; and `COc1ccc(C)cc1Nc1nnc(-c2ccccc2N)s1`, with inactive: 55.8 µM; and `CC1(C)CC2(S(=O)(=O)c3ccccc3)ON1CC2S(=O)(=O)c1ccccc1` (centres undefined), with inactive: > 100 µM.
Then `NC(=O)C(=CN1C(=O)CC(=O)NC1=S)C(N)=O`, with inactive: > 100 µM.
As for `CCOC(=O)N1CCC(=O)C(CNC23CC4CC(CC(C4)C2)C3)C1` (centres undefined), the GI50 is inactive: > 100 µM.
Then `COC1=CC2(CC(OC)=C1OC)OC21COc2ccccc2C1=O` (centres undefined), with inactive: 52.7 µM; and `O=C1c2c(F)c(F)c(F)c(F)c2SC2=Nc3cccc4cccc(c34)N12`, with inactive: 14.1 µM; and `C/C(=N\Nc1ccccc1)C(CN(C)C)C(c1ccccc1)c1c(O)c2ccccc2oc1=O` (centres undefined), with inactive: > 100 µM.
Turning to `CC1(Sc2ccccc2)CN(Cc2ccccc2)C1=O` (centres undefined), the GI50 was inactive: > 100 µM.
On to `O=C1C=C(NCCc2cc(Br)c(O)c(Br)c2)C(=O)c2[nH]cnc21`, for which the GI50 is inactive: 26.4 µM.
Then `Cc1ccc(C)c(COCCOCn2cc(N3CCOCC3)c(=O)[nH]c2=O)c1`, with inactive: > 100 µM; and `Cc1nc2c(=O)n(-c3ccccc3)c3ccccc3c2o1`, with inactive: > 100 µM; and `CCN(CC)Cc1sc2nc3ccccc3n2c1-c1ccc(OC)cc1`, with inactive: 35.2 µM.
For `CC(C)CCNc1ncnc2[nH]ncc12`, the GI50 was inactive: > 100 µM.
Then `COCCNC1CCC(=O)c2[nH]c3ccccc3c21` (centres undefined), with inactive: > 100 µM; and `CC(C)C1OC23CCCCC2C(C#N)(C#N)C1(C#N)C(=N)O3` (centres undefined), with inactive: 85.9 µM; and `CN(C)c1ccc(/N=N/c2ccncc2)cc1`, with inactive: > 100 µM.
Consider `CC(C)(C)NCC(O)c1ccc(O)c(CO)n1` (centres undefined), for which the GI50 was inactive: > 100 µM.
Then `COc1c(Cl)nc2ccccc2c1N=[N+]=[N-]`, with inactive: > 100 µM; and `Nn1c(S)nnc1-c1ccccc1Nc1ccccc1-c1nnc(S)n1N`, with inactive: > 50 µM.
As to `Cc1sc2nc3n(c(=O)c2c1C)N=CN(c1ccc(Cl)cc1)C3`, the GI50 is inactive: > 100 µM.
Regarding `CN(C)c1ccc(/C=C2\C[C@H]3[C@@H]4CCc5cc(OCCN6CCCC6)ccc5[C@H]4CC[C@]3(C)[C@H]2O)cc1`, the GI50 is inactive: 13.2 µM.
Then `CC1=C(C(=O)NNC(=O)CC#N)CC(C(=O)NNC(=O)CC#N)=C(C)N1`, with inactive: > 100 µM; and `N#Cc1c2c(c(Nc3ccc(Cl)cc3)n3c1nc1ccccc13)CCCC2`, with inactive: > 71.8 µM.
For `N#Cc1ccccc1NC(=O)C(=O)c1c(O)c2ccccc2oc1=O`, the GI50 is inactive: > 100 µM.
Then `CC(=O)O[C@H]1C(=O)[C@@]2(C)[C@H]([C@H](OC(=O)c3ccccc3)[C@]3(O)C[C@H](OC(=O)[C@H](O)[C@@H](NC(=O)CC(C)(C)C)c4ccccc4)C(C)=C1C3(C)C)C1(OC(C)=O)CO[C@@H]1C[C@@H]2O` (some centres undefined), with active: 0.0169 µM; and `CC(C)=CCC/C(C)=C/CC/C(C)=C/CSc1ccc(Cl)cc1C(=O)O`, with inactive: 18.1 µM.
For the compound `Nc1ncc(Cc2ccc3c(c2)OCO3)c(N)n1`, the GI50 was inactive: > 100 µM.
As to `O=C1C=CC(=O)N1c1ccc(I)cc1`, the GI50 was inactive: 19.1 µM.
On to `Cc1ccc(S(=O)(=O)NC(=O)Nc2nc[nH]n2)cc1`, for which the GI50 is inactive: > 100 µM.
For the compound `CCCCCNC(=O)c1cc2cc(CCl)ccc2oc1=O`, the GI50 is inactive: 2.65 µM.
Then `COc1cc(CCc2ccc(N)cc2)cc(OC)c1OC`, with inactive: > 100 µM.
Then `COc1ccc2[nH]c(Cl)c(/C=C3/C(=O)N(c4ccccc4)c4ccccc43)c2c1`, with inactive: 19.9 µM.
